Results on 44 compounds are retold here after article PMC4336329 (PLoS ONE, 2015).

Each structure is given as a SMILES string. Among all 310,000 compounds or so, about 14,000 (4.5%) showed an effect of 50% or more. The effect is printed as a negative number. Some of the results follow.
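Also: peak tail current of the secondary pulse compared with the same well before compound.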

In this test the target is human ether-à-go-go-related gene (hERG) potassium channel (human, UniProt Q12809). As to the kind of experiment: primary screen, population patch clamp on CHO cells stably expressing hERG.
human ether-à-go-go-related gene (hERG) potassium channel, sequence (Q12809 whole entry, looked up): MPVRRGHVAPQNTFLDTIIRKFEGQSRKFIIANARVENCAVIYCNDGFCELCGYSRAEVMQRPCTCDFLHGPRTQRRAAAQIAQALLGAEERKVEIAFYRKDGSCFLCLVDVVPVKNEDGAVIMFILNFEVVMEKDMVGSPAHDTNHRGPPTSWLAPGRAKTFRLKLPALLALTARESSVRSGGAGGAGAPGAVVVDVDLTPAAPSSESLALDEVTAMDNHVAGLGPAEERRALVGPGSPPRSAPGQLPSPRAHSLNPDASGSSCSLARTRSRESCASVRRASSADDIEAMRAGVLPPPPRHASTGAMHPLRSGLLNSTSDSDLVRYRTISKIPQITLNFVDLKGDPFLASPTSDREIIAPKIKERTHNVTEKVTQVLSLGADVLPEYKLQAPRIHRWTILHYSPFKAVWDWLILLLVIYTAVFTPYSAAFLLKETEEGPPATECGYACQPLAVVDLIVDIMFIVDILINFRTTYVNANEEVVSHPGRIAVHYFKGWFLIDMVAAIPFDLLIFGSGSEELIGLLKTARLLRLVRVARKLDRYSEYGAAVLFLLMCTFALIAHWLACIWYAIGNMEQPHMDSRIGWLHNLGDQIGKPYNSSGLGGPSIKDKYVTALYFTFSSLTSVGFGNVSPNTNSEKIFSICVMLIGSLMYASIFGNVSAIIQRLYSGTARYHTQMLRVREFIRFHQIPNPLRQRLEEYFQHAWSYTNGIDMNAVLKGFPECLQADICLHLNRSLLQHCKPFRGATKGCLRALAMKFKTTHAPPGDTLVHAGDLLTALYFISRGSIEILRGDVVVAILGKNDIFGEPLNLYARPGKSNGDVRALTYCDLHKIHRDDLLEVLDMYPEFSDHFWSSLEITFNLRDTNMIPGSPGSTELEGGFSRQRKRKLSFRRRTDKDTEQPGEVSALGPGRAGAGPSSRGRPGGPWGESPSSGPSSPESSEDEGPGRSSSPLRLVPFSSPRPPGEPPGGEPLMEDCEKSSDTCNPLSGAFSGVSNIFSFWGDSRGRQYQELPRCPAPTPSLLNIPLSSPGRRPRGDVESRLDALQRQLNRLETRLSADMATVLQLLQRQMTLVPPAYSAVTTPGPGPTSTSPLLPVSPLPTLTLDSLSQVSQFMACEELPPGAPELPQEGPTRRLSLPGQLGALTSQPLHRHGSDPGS
With `COc1ccc(NC(=O)CSc2nnc(-c3ccccc3C)n2N)cc1OC`, the “hERG current change (%, negative = inhibition) at 10uM” value is recorded as -11.7%.
For the compound `COCCCNC(=O)c1ccc(CS(=O)(=O)c2ccccc2OC)o1`, the “hERG current change (%, negative = inhibition) at 10uM” value stood at 6.84%.
Consider `COc1ccc(S(=O)(=O)N(CC(=O)NCc2ccco2)C2CCCCC2)cc1OC`, for which the “hERG current change (%, negative = inhibition) at 10uM” value is -44.9%.
Turning to `COc1ccc(-n2c(O)c(C(C)=NCC3CCCO3)c(=O)[nH]c2=O)cc1` (centres unmarked), the “hERG current change (%, negative = inhibition) at 10uM” value stood at 15.2%.
As to `O=C(CSc1nnc(COc2ccccc2)n1Cc1ccco1)Nc1ccc2c(c1)OCCO2`, the “hERG current change (%, negative = inhibition) at 10uM” value was determined as 14.1%.
For `COc1ccc(/C=C(/NC(=O)c2cccs2)C(=O)Nc2ccc(C)cc2)cc1OC`, the “hERG current change (%, negative = inhibition) at 10uM” value is given as 5.22%.
Consider `CCC(=O)c1cc2c(cc1NC(=O)c1ccccc1)OCCO2`, for which the “hERG current change (%, negative = inhibition) at 10uM” value was determined as 15.6%.
On to `COc1ccc(OCC(=O)Nc2ccccc2OC)cc1`, for which the “hERG current change (%, negative = inhibition) at 10uM” value is recorded as -5.3%.
The value for `COc1cc(C=O)ccc1OCCOCCOc1c(C)cc(Cl)cc1Cl` was 0.67%; that for `O=c1c(-c2ccc3c(c2)OCCO3)coc2cc(OC3OC(CO)C(O)C(O)C3O)ccc12` (centres unmarked) was 12.2%; that for `CCCn1c(C)cc(C(=O)COc2ccc(S(=O)(=O)N(CC)CC)cc2[N+](=O)[O-])c1C` was -5.52%.
As for `CCC(Sc1nc(N)cc(=O)[nH]1)C(=O)Nc1cc(C)on1` (centres unmarked), the “hERG current change (%, negative = inhibition) at 10uM” value is given as 13%.
In the case of `c1ccc(Oc2cccc(OCCCCN3CCCC3)c2)cc1`, the “hERG current change (%, negative = inhibition) at 10uM” value is given as -78.3%.
The value for `CCOC(=O)C(C)Oc1cccc2c(=O)n(CC(=O)NCCc3ccc(OC)c(OC)c3)ccc12` (centres unmarked) was -7.08%; that for `CCN1CCCC1CNC(=O)c1ccccc1Cl` (centres unmarked) was -10.6%; that for `CCC(C)[C@H]1CNCCN1CCC12CC3CC(CC(C3)C1)C2` (some centres unmarked) was 12.5%.
For the compound `COc1ccc(C(=O)N2CCC(C(=O)Nc3ccc4c(c3)OCO4)CC2)cc1`, the “hERG current change (%, negative = inhibition) at 10uM” value was -79.9%.
The value for `Cc1ccccc1-n1c(O)c(C=NCCN2CCOCC2)c(=O)[nH]c1=O` was -6.37%; that for `CCOc1ccc(/C=C2\SC(=S)N(C)C2=O)cc1OC` was 6.49%.
`CC1Cc2nc(SCC(=O)Nc3nccs3)n(Cc3ccccc3)c(=O)c2S1` (centres unmarked): the “hERG current change (%, negative = inhibition) at 10uM” value was 2.84%.
As to `Cc1cccc(OCCNC(=O)CCc2ccccc2)c1`, the “hERG current change (%, negative = inhibition) at 10uM” value worked out at 8.81%.
The value for `COc1ccc(-c2cc(C(=O)Nc3cc(C)on3)no2)cc1` was 19.9%; that for `CC1(NC(=S)N(CCO)CCO)CCS(=O)(=O)C1` (centres unmarked) was 3.47%; that for `COc1ccc(C(=O)COC(=O)C(CCCCN2C(=O)C3C4C=CC(C4)C3C2=O)N2C(=O)C3C4C=CC(C4)C3C2=O)cc1` (centres unmarked) was -46.3%.
Consider `COc1ccc(C[C@H]2CN3C(=NC[C@H]3C)N2CCNC(=O)c2ccc(C)c(Br)c2)cc1`, for which the “hERG current change (%, negative = inhibition) at 10uM” value is recorded as -72%.
Regarding `COc1ccc(C=Nc2ccc3[nH]ncc3c2)c(O)c1`, the “hERG current change (%, negative = inhibition) at 10uM” value is reported as 19.7%.
Turning to `COc1cccc(C2c3[nH]c4ccccc4c3C[C@H]3C(=O)N(c4ccccc4C(=O)N4CCC[C@H]4C(=O)O)C(=O)N23)c1` (some centres unmarked), the “hERG current change (%, negative = inhibition) at 10uM” value is recorded as 12.4%.
The value for `CCN(CC)c1ccc2c(cc1=O)[C@@H](NC)CCc1cc(OC)c(OC)c(OC)c1-2` was -1.31%; that for `COc1ccc(N2CCN(c3ncnc4c3[nH]c3ccccc34)CC2)cc1` was 16.5%; that for `COc1ccc(C2c3sc(=O)[nH]c3SCC2C(N)=O)cc1` (centres unmarked) was 7.32%.
The value for `COc1ccc(N2CCN(CC(=O)c3ccc(Cl)cc3)CC2)cc1` was 10.5%; that for `C[C@H]1CN=C(N(C)C)N1CC1CCCCC1` was 7.73%; that for `C[C@H](NC(=O)[C@@H]1Cc2ccccc2CN1C(=O)OC(C)(C)C)C(=O)NCc1ccco1` was 30%.
On to `Cc1ccc2c(c1)N(Cc1ccccn1)C(=O)C(C)O2` (centres unmarked), for which the “hERG current change (%, negative = inhibition) at 10uM” value is given as -2.29%.
Consider `CCc1ccc(N/C(N)=N/c2nc(CSc3ncccn3)cc(=O)[nH]2)cc1`, for which the “hERG current change (%, negative = inhibition) at 10uM” value was determined as 20.9%.
With `Cc1nnc(NC(=O)CSc2nc3[nH]ncc3c(=O)[nH]2)s1`, the “hERG current change (%, negative = inhibition) at 10uM” value stood at 14.9%.
As to `O=C1CC(NS(=O)(=O)c2cc(F)ccc2F)CN1c1ccc2c(c1)OCCO2` (centres unmarked), the “hERG current change (%, negative = inhibition) at 10uM” value is reported as -4.13%.
On to `O=C(Nc1nnc(-c2ccccc2)o1)C1CCCN1S(=O)(=O)c1cccs1` (centres unmarked), for which the “hERG current change (%, negative = inhibition) at 10uM” value amounted to 5.16%.
On to `CC(C)CCNC(=O)c1cc(C(=O)c2cc(F)ccc2O)cn(CCC(C)C)c1=O`, for which the “hERG current change (%, negative = inhibition) at 10uM” value is 17.4%.
The value for `CC(C)Cc1ccc(C(=O)NCCOc2ccccc2)o1` was -22.9%; that for `CCCc1ccc(Oc2cn[nH]c2-c2ccc(O)cc2O)cc1` was 12.5%.
For `COc1ccccc1-c1noc2ncnc(Nc3cccc(C)c3)c12`, the “hERG current change (%, negative = inhibition) at 10uM” value was found to be 15.9%.
Turning to `CC(=O)N1CCc2cc(S(=O)(=O)NC(CC(C)C)C(=O)N3CCc4ccccc4C3)ccc21` (centres unmarked), the “hERG current change (%, negative = inhibition) at 10uM” value was -26.8%.
As for `CCOc1cc(NC(=O)c2cccs2)c(OCC)cc1NC(=O)c1ccccn1`, the “hERG current change (%, negative = inhibition) at 10uM” value is given as -9.78%.
